In PubChem BioAssay AID485297 (National Center for Advancing Translational Sciences (NCATS), 2010):
The campaign covered roughly 320,000 compounds. About 9,100 (2.8%) were called active. The shares of active, inactive and inconclusive entries below differ from those in the screen. Calls come from the whole dose curve; as a rule, active = well fitted activation curve with a large enough effect; inconclusive = small, poorly fitted or top-dose-only effect; inactive = no such curve, though single readings can be large or run the other way. Potencies of inconclusive entries are doubtful fits and often do not repeat.

Test: qHTS Assay for Rab9 Promoter Activators; note: nearly all actives have a fitted effect of over 60% in size; for activation, negative = inhibition: % of control where 0% means no effect
Conditions: Huh7 Rab9 promoter-luciferase reporter, luminescence, 24 h; series mostly up to 9.22 µM; activation, negative = inhibition: at the top concentration
How it was run: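 Huh7 reporter line, Rab9 promoter upstream of luciferase. Compound exposure 24 h at 37 °C in reduced-serum medium with 10% FBS. Read-out: luminescence.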
Potency is the fitted concentration of half-maximal effect; tags give direction and shape of the fitted curve.

Potency, active:
Cc1ccc(CNc2nc(C)cs2)cc1 1120 nM
Nc1c(C(=O)N2CCCC2)sc2nc3c(cc12)CCCCCC3 3980 nM
COc1cc(SC)ccc1C(=O)Nc1ccc(C)cc1C 3550 nM
CSC1=NSC2=NC(=O)/C(=C\c3ccc(OC(=O)c4ccco4)cc3)C(=N)N12 1580 nM
CC1CCN(C(=O)Cn2nnc(-c3cccs3)n2)CC1 2240 nM
CCCCOc1ccc2c(c1)C(=O)c1cc(O)ccc1-2 3160 nM
N#CC1(c2ccc(NC(=O)c3ccccc3F)cc2)CCCC1 794 nM
CCC(=O)Nc1ccc(NC(=O)c2cccc(OC)c2)nc1 2240 nM
O=C(Nc1ccc2c(c1)OCCO2)c1cccc(S(=O)(=O)N2CCOCC2)c1 4470 nM
O=C(Nc1nnc(-c2ccccc2)s1)c1ccccc1O 2510 nM
Cc1ccc(C(=O)Nc2nc3ccc(S(C)(=O)=O)cc3s2)o1 2510 nM
O=c1oc2ccccc2cc1-c1nnc(NCc2ccco2)s1 708 nM
O=C(/C=C/c1ccccc1)c1c[nH]c2ccccc12 355 nM
O=C(Cc1cccs1)N/N=C/C(Cl)=C/c1ccccc1 3550 nM
COc1ccc(-c2csc(Cc3nc(O)cs3)n2)cc1 1000 nM

Potency, inconclusive:
Cc1ccccc1CSCC(=O)c1c(N)n(C)c(=O)n(C)c1=O 794 nM [activator, single point]
C/C(=C\c1ccccc1)C(=O)NCc1ccco1 1000 nM [activator, single point]
Brc1ccc(-c2csc(-c3ccncc3)n2)cc1 5620 nM [activator, single point]
C[C@@H]1OC(Nc2ccc(N=Nc3ccccc3)cc2)[C@H](O)[C@H](O)[C@H]1O (stereo partly drawn) 3550 nM [activator, partial curve]
Cc1ccc(-c2cc3nn(-c4ccccc4)c(N)c3c(=O)o2)cc1 3980 nM [activator, partial curve]
CC(=O)n1c(C=Nc2ccccc2)c(O)c2ccccc21 3160 nM [activator, partial curve]
CCCC(=O)Nc1cc(C)c(NC(=O)c2ccccn2)cn1 3550 nM [activator, partial curve]
Nc1ccc2oc(-c3ccc4nc[nH]c4c3)nc2c1 447 nM [activator, full curve]
CCCCc1nc2cc(C(=O)N3CCCCC3CC(=O)OCC)ccc2o1 (stereo not drawn) 3550 nM [activator, partial curve]
Cn1ccnc1C(=O)c1cc(=O)c2ccccc2o1 2820 nM [activator, partial curve]
Cc1cccc(NC(=O)Nc2cccc(F)c2)n1 5620 nM [activator, single point]
O=C(COn1nnc2ccccc21)N1CCN(Cc2ccccc2)CC1 3980 nM [activator, partial curve]
COc1ccc2c(c1)CC/C(=C\C=C\c1ccccc1OC)C2=O 3160 nM [activator, partial curve]
COc1cc(C(=O)Nc2cc(-c3nc4cc(C)ccc4o3)ccc2C)cc(OC)c1OC 3550 nM [activator, partial curve]
Cn1c(/C(C#N)=C/c2ccc(O)cc2)nc2ccccc21 3550 nM [activator, single point]
COc1cc2ccccc2cc1C(=O)Nc1ccc(C)cn1 3160 nM [activator, partial curve]
COc1ccccc1/C=C/C=N/NC(=O)c1ccco1 2820 nM [activator, partial curve]
CN(Cc1ccccc1)C(=O)c1cc(-c2ccc(Br)cc2)on1 5620 nM [activator, single point]
COc1cccc(C(=O)Nc2ccc3c(c2)C(=O)c2ccccc2C3=O)c1 1120 nM [activator, partial curve]
O=C(c1ccco1)N1CCc2ccccc21 2510 nM [activator, partial curve]
CN(C)S(=O)(=O)c1cccc(NC(=O)c2cc3ccccc3o2)c1 5620 nM [activator, single point]
COC(=O)c1nn(-c2ccc(-c3ccccc3)cc2)cc1O 5010 nM [activator, single point]
O=C(COc1ccccc1)Nc1nc2c(s1)CCCC2 2820 nM [activator, partial curve]
Cc1ccc(CSc2nnc(SCC(=O)N/N=C/c3c(C)nn(-c4ccccc4)c3C)s2)cc1 1780 nM [activator, partial curve]
CC(C)(C)c1ccc(-c2nc(C#N)c(NCc3ccncc3)o2)cc1 1580 nM [activator, partial curve]
Cc1nn(-c2ccccc2)c(C)c1Cc1ccc(O)cc1 6310 nM [activator, single point]
COc1cc2c(cc1OC)CN(c1ncccc1[N+](=O)[O-])CC2 2240 nM [activator, partial curve]
CC(=O)Nc1cccc(NC(=O)c2ccc(Br)cc2)c1 3550 nM [activator, single point]
O=C1NC(=S)S/C1=C/c1ccc(Oc2cnccn2)cc1 5010 nM [activator, single point]
COc1ccccc1N1CCN(/N=C/c2cccc(OC)c2O)CC1 1780 nM [activator, partial curve]
O=C(Nc1nnc(-c2cccc(F)c2)s1)Nc1ccccc1F 5620 nM [activator, single point]
CCOC(=O)N1CCN(C(=O)c2cc(-c3ccc(OCC)cc3)nc3ccccc23)CC1 501 nM [activator, full curve]
CCOc1ccc(C(=O)Nc2ncccc2Cl)cc1 2510 nM [activator, partial curve]
O=C(Nc1cccc(F)c1)Nc1ccc(Cl)cn1 2000 nM [activator, partial curve]
COC(=O)c1c(-c2ccc(Br)cc2)noc1N 3160 nM [activator, single point]
CCC(=O)c1ccc(OCc2ccc(C(=O)OC)cc2)cc1 398 nM [activator, partial curve]
CCN=C(N/N=C/c1ccc([N+](=O)[O-])cc1)SC 2240 nM [activator, partial curve]
CC(=O)Oc1ccc(C(=O)Nc2nccs2)cc1 5620 nM [activator, single point]
Clc1ccsc1-c1csc(-c2cccnc2)n1 2820 nM [activator, partial curve]
CCCCOC(=O)Nc1nnc(CC)s1 3160 nM [activator, single point]
Cc1nn2cc(-c3cccc(Cl)c3)cnc2c1Cl 1120 nM [activator, full curve]
Cc1nc2ccc(NC(=O)N(C)c3ccccc3)cc2s1 3550 nM [activator, single point]
Cc1ccsc1C(=O)C1CCCN(Cc2cn(C)nc2-c2ccccc2)C1 (stereo not drawn) 1260 nM [activator, single point]
CSc1ccccc1NC(=O)c1ccc(CN2CCOCC2)cc1 3550 nM [activator, single point]

activation, negative = inhibition, inactive:
COc1ccc(NC(=O)Cn2c(CCC(=O)O)ccc2-c2ccc(C)cc2)cc1 6.21%
CC(NC(=O)C1CCN(S(=O)(=O)c2cccc3nonc23)CC1)c1ccccc1 (stereo not drawn) 7.96%
Cc1cc(C)n2nc(SCC(=O)Nc3ccccc3C)nc2n1 -4.49%
COc1cc(CNC(C)(C)CO)ccc1OCC(=O)NC(C)(C)C 1.25%
O=C(c1ccccc1SCc1ccccc1)N1CCCCCC1 -1.02%
CC1CCN(C(=O)C2CCCN(S(=O)(=O)c3ccc4c(c3)CC(C)N4C(=O)C3CC3)C2)CC1 (stereo not drawn) -3.29%
O=C(Nc1ccc(C(=O)O)cc1)Nc1cccc([N+](=O)[O-])c1 1.06%
O=C(NCC1CC1)Nc1ccccc1 1.22%
Cc1ccc(NS(=O)(=O)c2ccc3[nH]c(=O)c(=O)[nH]c3c2)cc1Cl 2.67%
Cc1ccc(S(=O)(=O)N(C)c2ccc(C(=O)Nc3ccccc3C(=O)N3CCOCC3)cc2)cc1 1.09%
CC1C(=O)Nc2ccccc2N1C(=O)c1ccc(F)cc1 (stereo not drawn) -0.792% [at 1.84 µM]
O=C(CSc1ncn[nH]1)Nc1ccccc1-c1ccccc1 -0.0567%
Cc1cc(N2CCOCC2)nc2ccc(NC(=O)CCC(=O)N3CCN(c4ccccc4)CC3)cc12 29.8%
COc1cnc(-c2cccc(C(F)(F)F)c2)nc1OC 14.5%
Oc1ccc(-c2cc(-c3ccc(O)cc3)nc(-c3ccccc3)n2)cc1 -8.31%
Cc1cnc([N+](=O)[O-])n1CCOC(=O)NC(=O)c1ccc(C(F)(F)F)cc1 -1.16%
CNC(=S)NNc1nncc2ccccc12 -2.43%
COc1cc(/C=N/NC(=O)COc2ccc(-n3cnnn3)cc2)ccc1OCC(N)=O -1.72%
CSc1ccc(S(=O)(=O)N(C)Cc2ccccc2)cc1 -4.38%
